From the supplement of paper PMC3334620 come the findings set out here.

Whole data set: some 33,000 sequences, median “E-score (-0.5 to 0.5)” near -0.054, cut for the highest 2% near 0.35. Some of the results follow.

This test has as its target T1, Stb5 (UniProt P38699).
T1 sequence: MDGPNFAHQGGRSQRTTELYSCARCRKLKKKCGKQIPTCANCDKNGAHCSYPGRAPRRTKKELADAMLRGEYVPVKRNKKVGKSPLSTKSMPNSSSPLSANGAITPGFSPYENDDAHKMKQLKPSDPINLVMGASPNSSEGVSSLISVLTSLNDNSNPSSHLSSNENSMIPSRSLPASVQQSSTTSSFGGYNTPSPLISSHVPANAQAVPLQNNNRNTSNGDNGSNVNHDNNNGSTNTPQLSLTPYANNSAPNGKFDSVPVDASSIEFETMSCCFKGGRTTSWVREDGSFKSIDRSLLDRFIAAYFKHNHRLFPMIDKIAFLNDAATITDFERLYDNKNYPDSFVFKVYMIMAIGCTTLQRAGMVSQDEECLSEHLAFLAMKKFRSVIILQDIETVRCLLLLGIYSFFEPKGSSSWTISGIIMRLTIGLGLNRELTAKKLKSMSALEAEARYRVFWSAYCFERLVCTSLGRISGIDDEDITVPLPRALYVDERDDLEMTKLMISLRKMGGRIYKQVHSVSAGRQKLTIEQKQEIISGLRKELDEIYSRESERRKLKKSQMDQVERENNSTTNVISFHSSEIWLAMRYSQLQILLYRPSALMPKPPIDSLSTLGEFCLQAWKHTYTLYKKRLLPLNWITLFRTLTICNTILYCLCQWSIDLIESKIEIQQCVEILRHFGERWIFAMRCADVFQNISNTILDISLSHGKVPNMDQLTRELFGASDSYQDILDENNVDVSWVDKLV
Briefly: PBM E-score (8-mer binding enrichment) (E-score (-0.5 to 0.5)); higher = stronger / more preferred TF binding; most listed sequences are background and not binding sites. The note with it: protein concentration: 200 nM; construct: GST-full length. An outline of the steps:
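Each ungapped eight-base word and its reverse complement, pooled, received an E-score from the Universal PBM Analysis Suite. Underlying scans, normalised with masliner, recorded fluorescent anti-GST bound to GST-tagged yeast transcription factors. These were applied at about 100-200 nM to universal all-10-mer Agilent arrays double-stranded by primer extension.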
Turning to CTGGCAAG, the “PBM E-score” value is -0.193.

Regarding CAGTAGAG, the “PBM E-score” value is -0.292.

Consider AGCTTATG, for which the “PBM E-score” value was -0.234.

Regarding ATTATCTC, the “PBM E-score” value came out at 0.199.

With TAAGGAAA, the “PBM E-score” value is -0.125.

For the sequence CGGTTCGA, the “PBM E-score” value amounted to 0.138.

With AGAGCCGG, the “PBM E-score” value is 0.207.

In the case of ATTGTTAC, the “PBM E-score” value amounted to 0.133.

Take CAGTAAGG: the “PBM E-score” value is -0.183.

For CTTAGCGC, the “PBM E-score” value came out at 0.13.

AGAACGAC: the “PBM E-score” value was -0.0237.

For AAACGAAT, the “PBM E-score” value is -0.223.

Take GGACCGCC: the “PBM E-score” value stood at 0.288.

Turning to ACCGTGCT, the “PBM E-score” value was 0.0371.

For AGTATTGG, the “PBM E-score” value is -0.266.

Turning to CAGGTATG, the “PBM E-score” value is -0.109.

As to CGCTCGAC, the “PBM E-score” value was -0.0458.

As for CTCCTGAC, the “PBM E-score” value was -0.0397.

TCGGATCA: the “PBM E-score” value is 0.0854.

With TACCAATA, the “PBM E-score” value is -0.158.

Consider GAGTTCAC, for which the “PBM E-score” value was -0.129.

On to AAAAAGCA, for which the “PBM E-score” value is -0.203.

Turning to AAAGGATG, the “PBM E-score” value is -0.133.

Take CCACATAG: the “PBM E-score” value was found to be 0.0636.

For AAAGTCAC, the “PBM E-score” value was -0.1.

Consider CCCCCTAA, for which the “PBM E-score” value is -0.344.

Regarding TCACTACA, the “PBM E-score” value was -0.123.

Regarding CTGCTAAA, the “PBM E-score” value came out at 0.00756.

Turning to CGTGGCGC, the “PBM E-score” value turned out to be 0.199.

In the case of AGTTACAT, the “PBM E-score” value is -0.231.

Turning to GCGGGACA, the “PBM E-score” value was 0.22.

ATATCACA: the “PBM E-score” value is -0.0666.

On to AAACGTAA, for which the “PBM E-score” value is -0.182.

In the case of CAAGGGAC, the “PBM E-score” value was -0.165.

Turning to CACGGGTA, the “PBM E-score” value was -0.0422.

For AGATGGTA, the “PBM E-score” value turned out to be 0.0213.

AGCGTCTG: the “PBM E-score” value was 0.0201.

As for TATTCAGA, the “PBM E-score” value was -0.0956.

Regarding ATCGTTCC, the “PBM E-score” value is -0.0144.

For ACCCTTAG, the “PBM E-score” value is -0.28.

In the case of ATAGGTAC, the “PBM E-score” value is -0.103.

In the case of CTTTCGAA, the “PBM E-score” value is -0.214.

As to AGACCATG, the “PBM E-score” value is -0.346.

Regarding ACCTAGGG, the “PBM E-score” value was 0.09.

On to AAACTAGA, for which the “PBM E-score” value is -0.0984.

On to CTCTACTC, for which the “PBM E-score” value is -0.132.

In the case of GTTAGAGA, the “PBM E-score” value was -0.246.

AATTCCCA: the “PBM E-score” value is -0.261.

AGAACTTA: the “PBM E-score” value was -0.169.

As to AACTTCAC, the “PBM E-score” value was -0.293.

CCCTTTCG: the “PBM E-score” value is 0.0776.

AGTTCTAG: the “PBM E-score” value was -0.0956.

Turning to AGGCTAGC, the “PBM E-score” value was -0.249.

As for ATGTAACG, the “PBM E-score” value amounted to 0.029.

In the case of CAGCCAAG, the “PBM E-score” value is -0.228.

Consider AACTGGGG, for which the “PBM E-score” value was -0.131.

As for ATACTACC, the “PBM E-score” value stood at 0.194.

Turning to AAAGACAC, the “PBM E-score” value was -0.042.

CGTCAGCC: the “PBM E-score” value was 0.0539.

Take ATAATACA: the “PBM E-score” value was determined as 0.0704.

As to CGAACAAC, the “PBM E-score” value is -0.167.

Turning to GATGGGCC, the “PBM E-score” value was -0.0615.

ATAGTCCG: the “PBM E-score” value came to 0.338.

For the sequence GATGAACC, the “PBM E-score” value was -0.00688.

TAAGAGAA: the “PBM E-score” value is -0.108.

Turning to GATGGCTA, the “PBM E-score” value was -0.167.

With TGAACACA, the “PBM E-score” value is -0.207.

As to AGTCATAG, the “PBM E-score” value is -0.255.

In the case of CCCGCATA, the “PBM E-score” value amounted to 0.146.

GCCGTACA: the “PBM E-score” value was 0.00971.

In the case of AGAGAGGA, the “PBM E-score” value is -0.163.

ATTTCTGC: the “PBM E-score” value is 0.0353.

As to CTTAAGCA, the “PBM E-score” value is -0.0835.

For the sequence CCACGGGG, the “PBM E-score” value was 0.235.

Turning to CCGCCAAC, the “PBM E-score” value came to 0.315.

As to GTGAGAAA, the “PBM E-score” value came out at 0.0523.

In the case of AAAGAGTT, the “PBM E-score” value was -0.263.

On to GTTAGAAA, for which the “PBM E-score” value was determined as 0.0727.

As to AAACAACC, the “PBM E-score” value was -0.122.

Take CCCTGCCG: the “PBM E-score” value was 0.0368.

Turning to GAGGAGGA, the “PBM E-score” value was -0.307.

Turning to AATTATTG, the “PBM E-score” value is -0.174.

Consider ACCGGTAA, for which the “PBM E-score” value was found to be 0.326.

Consider GTGTCGTA, for which the “PBM E-score” value is -0.0721.

Take ACCGTTAG: the “PBM E-score” value worked out at 0.167.

As to AGCCAATG, the “PBM E-score” value was -0.293.
